The supplement of paper PMC3334620
In all, about 33,000 sequences were measured (“E-score (-0.5 to 0.5)”: median about -0.013, highest 2% from about 0.3 on). The list shows a part of the results.

Target: T1, Msn1 (UniProt P22148)
T1 sequence: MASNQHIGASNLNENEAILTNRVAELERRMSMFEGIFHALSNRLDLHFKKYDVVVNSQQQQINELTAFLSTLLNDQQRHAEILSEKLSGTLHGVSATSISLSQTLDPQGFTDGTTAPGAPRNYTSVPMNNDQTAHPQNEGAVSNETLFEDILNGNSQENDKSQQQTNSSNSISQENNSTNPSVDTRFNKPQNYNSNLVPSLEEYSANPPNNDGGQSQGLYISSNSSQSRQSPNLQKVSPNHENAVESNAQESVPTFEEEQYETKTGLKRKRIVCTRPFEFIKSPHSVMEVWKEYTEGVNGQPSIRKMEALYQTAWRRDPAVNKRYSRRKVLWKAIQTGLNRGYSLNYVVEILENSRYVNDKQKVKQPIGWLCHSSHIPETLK
Assay: PBM E-score (8-mer binding enrichment) (E-score (-0.5 to 0.5)); higher = stronger / more preferred TF binding; most listed sequences are background and not binding sites
Settings: protein concentration: 200 nM; construct: GST-full length
Outline: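 Universal all-10-mer Agilent arrays, fresh or stripped once, were converted to double-stranded form by primer extension. GST-tagged yeast transcription factors from PURExpress in vitro transcription/translation, full-length or DNA-binding domain only, were applied at about 100-200 nM and detected with fluorescent anti-GST. After masliner normalisation, the Universal PBM Analysis Suite scored each ungapped eight-base word together with its reverse complement by E-score.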

| Sequence | PBM E-score |
| --- | --- |
| GCTAACAC | -0.0214 |
| ACATGGGG | -0.0754 |
| ATATCCAC | 0.0731 |
| AAATGAGC | 0.0159 |
| ATTCGGCG | 0.161 |
| AGGCGTAT | 0.00582 |
| CGTACCTC | -0.107 |
| GAACAATC | 0.022 |
| AAATCAGC | 0.126 |
| GTTGAATA | 0.0705 |
| AGTGATGC | -0.0793 |
| CATGCAGG | -0.2 |
| CTTCGCCC | -0.219 |
| ACTAATTA | 0.21 |
| GCCGATCA | -0.0192 |
| GATTCGAA | 0.00623 |
| ACCGGGCT | -0.146 |
| AGATACAC | 0.0785 |
| CATCACAC | -0.0894 |
| AGATTGCT | -0.00224 |
| CACCATCC | -0.249 |
| TGGACCAA | 0.0483 |

| Sequence | PBM E-score |
| --- | --- |
| ATAGACAC | 0.245 |
| CCAACCGG | -0.104 |
| AGTTCCTC | -0.0834 |
| ATTTCGTA | 0.0958 |
| AACGTTCC | -0.184 |
| GGAGTTTA | 0.0282 |
| CTTGAGAA | -0.0327 |
| GCTGGGTA | -0.24 |
| AACAGTAT | 0.0551 |
| CCATTGAG | 0.0358 |
| ACTTATGG | -0.0838 |
| ATACCAAA | 0.149 |
| CCGATTTC | -0.0797 |
| AACTTCTC | 0.133 |
| CCCCGCCC | -0.015 |
| ACAGATAG | 0.116 |
| ATGCACTC | -0.179 |
| TACTATGA | 0.145 |
| AGTCGGAC | 0.3 |
| GTTGGACA | 0.437 |
| ATAGAAAG | -0.103 |
| ATACCGCG | 0.0616 |

| Sequence | PBM E-score |
| --- | --- |
| ATTTATTG | 0.128 |
| GAGCGCTC | -0.219 |
| ACTTATAC | 0.0919 |
| AAGTAAGT | 0.0218 |
| AACGGCAG | -0.0524 |
| GATCTCGC | 0.0143 |
| CAATTCTC | 0.069 |
| ATTGTGTC | 0.314 |
| CTGCCGCC | -0.265 |
| GTTGCCTA | -0.138 |
| GACCATCA | -0.0992 |
| CAAGTTGA | -0.135 |
| AAAGTTAA | 0.182 |
| CGCGGGAC | 0.129 |
| CATGGCAC | -0.179 |
| CGTATCGA | -0.0032 |
| CGTGGGCA | -0.0861 |
| CCACTCGA | 0.0135 |
| AACATTGA | 0.117 |
| CGTGAGAA | -0.116 |
| CACTTCCG | -0.0321 |
| GTGCGACA | 0.0786 |

| Sequence | PBM E-score |
| --- | --- |
| AGGAATGA | -0.0321 |
| ACGCAAGT | 0.0394 |
| AGTTAGTC | 0.0804 |
| AATTGCGC | 0.106 |
| CATGGTAA | 0.055 |
| CTTTCCAC | -0.0997 |
| ACGTATAC | -0.115 |
| ACTTCCCG | 0.00833 |
| AGTTAGGA | 0.171 |
| GGCTAGTA | 0.102 |
| ACCCTCGT | -0.241 |
| CTACCGAA | -0.0333 |
| CTCCAAGA | 0.0444 |
| CTGGAGTC | -0.182 |
| CGCCTAAC | 0.0368 |
| CAACAATA | 0.163 |
| ACCCCCCT | -0.325 |
| TACTGTCA | 0.0239 |
| AGGATTCA | -0.0937 |
| ATACTCCG | 0.193 |
